The results in this text go back to PMC4336329 (PLoS ONE, 2015).

Out of some 310,000 compounds screened, about 14,000 (4.5%) showed an effect of 50% or more. Effects have a minus sign here. The list shows a part of the results.
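Note: peak tail current of the secondary pulse compared with the same well before compound.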

Sequence of human ether-à-go-go-related gene (hERG) potassium channel (Q12809 whole entry, looked up): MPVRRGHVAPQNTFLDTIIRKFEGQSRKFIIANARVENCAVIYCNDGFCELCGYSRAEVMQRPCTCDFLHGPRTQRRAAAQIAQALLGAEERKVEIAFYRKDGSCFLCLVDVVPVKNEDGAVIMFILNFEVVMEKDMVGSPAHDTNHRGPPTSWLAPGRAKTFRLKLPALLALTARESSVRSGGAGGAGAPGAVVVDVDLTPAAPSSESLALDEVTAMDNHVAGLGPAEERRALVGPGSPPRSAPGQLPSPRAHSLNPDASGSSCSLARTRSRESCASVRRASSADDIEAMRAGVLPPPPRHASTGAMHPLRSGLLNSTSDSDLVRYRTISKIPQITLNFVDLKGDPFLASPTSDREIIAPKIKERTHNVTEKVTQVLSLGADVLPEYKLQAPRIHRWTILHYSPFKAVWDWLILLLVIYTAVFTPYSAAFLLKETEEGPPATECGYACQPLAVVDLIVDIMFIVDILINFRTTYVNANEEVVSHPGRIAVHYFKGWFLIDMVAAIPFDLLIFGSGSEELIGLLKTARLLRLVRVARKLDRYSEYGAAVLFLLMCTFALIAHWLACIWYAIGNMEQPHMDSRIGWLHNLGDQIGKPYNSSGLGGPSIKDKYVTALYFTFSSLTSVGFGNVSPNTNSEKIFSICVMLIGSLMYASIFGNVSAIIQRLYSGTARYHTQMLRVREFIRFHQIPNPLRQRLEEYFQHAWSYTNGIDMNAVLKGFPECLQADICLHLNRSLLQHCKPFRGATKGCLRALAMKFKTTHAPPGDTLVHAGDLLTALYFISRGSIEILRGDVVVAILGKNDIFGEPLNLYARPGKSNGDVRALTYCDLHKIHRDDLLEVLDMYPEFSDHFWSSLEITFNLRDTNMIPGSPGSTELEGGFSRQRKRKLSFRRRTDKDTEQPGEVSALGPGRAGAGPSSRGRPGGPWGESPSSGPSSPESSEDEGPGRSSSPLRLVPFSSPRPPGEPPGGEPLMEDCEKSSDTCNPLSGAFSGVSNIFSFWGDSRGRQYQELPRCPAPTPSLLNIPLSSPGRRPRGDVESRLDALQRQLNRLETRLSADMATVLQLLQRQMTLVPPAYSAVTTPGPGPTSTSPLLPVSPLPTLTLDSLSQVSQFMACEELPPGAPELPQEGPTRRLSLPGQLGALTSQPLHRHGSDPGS

This assay addresses human ether-à-go-go-related gene (hERG) potassium channel (human, UniProt Q12809). In words: primary screen, population patch clamp on CHO cells stably expressing hERG.
Regarding `Br.CCN(CC)CCn1c(=N)n(CC(=O)c2ccc(C)cc2)c2ccccc21`, the “hERG current change (%, negative = inhibition) at 10uM” value is reported as -40.8%.
To `CCc1ccc(Oc2coc3cc(OC(=O)c4cc5ccccc5oc4=O)ccc3c2=O)cc1` belongs -6.46%.
Take `CCOC(=O)C(=O)Nc1nnc(COc2ccccc2)s1`: the “hERG current change (%, negative = inhibition) at 10uM” value is recorded as 7.18%.
On to `COc1ccc(C(=O)CCC(=O)Nc2cc(Cl)c(O)c(Cl)c2)cc1`, for which the “hERG current change (%, negative = inhibition) at 10uM” value was 17.3%.
For `CCNC(=O)COC(=O)c1cc(C)n(-c2ccccc2)c1C` the value was 19.5%; for `COc1cccc(NC(=O)CN(C)C(=O)c2ccc(COc3ccccc3)o2)c1`, 3.73%; for `COc1ccccc1N1C(=O)CCC1(C#N)c1ccccc1` (stereo not drawn), -12.7%.
For `CCNC(=S)NCc1ccc2c(c1)OCO2` the value was 6.19%; for `CCOCC(=O)Nc1cccc(Br)c1`, -1.9%.
To `O=C(CN=C1NS(=O)(=O)c2ccccc21)OCC(=O)c1cc(F)ccc1F` belongs 9.53%; to `CC(=O)N1CCOc2ccc(S(=O)(=O)N3CCN(c4cc(C)ccc4C)CC3)cc21`, 10.7%.
As for `CN1[C@@H]2CC[C@H]1CC(OC(=O)c1c[nH]c3ccccc13)C2.Cl` (stereo partly drawn), the “hERG current change (%, negative = inhibition) at 10uM” value is listed as -48.1%.
To `Cc1ccc2c(c1)COc1c3ccc(C(=O)N[C@@H](C)CO)cc3nn1-2` belongs 8.4%; to `CN(C(=O)c1cc(COc2c(F)cccc2F)on1)C1CCOC1` (stereo not drawn), -3.85%; to `Cc1ccc(-n2nc(C)c3c(=O)[nH]c(C(F)(F)F)nc32)cc1`, -3.11%.
To `CC(C)CCSc1nnc(N)s1` belongs 16.7%; to `Cn1c(C(=O)c2ccccc2)nc2ccccc21`, -0.119%.
For `Fc1ccccc1OCCCCCCN1CCCC1` the value was -38.2%; for `Cc1onc(-c2cccc(Cl)c2Cl)c1C(=O)O/N=C(\N)c1ccc([N+](=O)[O-])o1`, -65%; for `COc1ccc(SC[C@H](Cc2ccccc2)N2CC[C@@H](C)CCC2=O)cc1`, -20.1%.
Consider `Cc1ccc2sc(-c3ccc(NC(=O)CCN4C(=O)c5ccccc5C4=O)cc3)nc2c1`, for which the “hERG current change (%, negative = inhibition) at 10uM” value is 0.663%.
For `O=C(COC(=O)COc1ccccc1[N+](=O)[O-])Nc1ccccc1Br` the value was 3.82%; for `CCC(=O)Nc1ccc(F)c(Cl)c1`, 20.5%.
As for `Cc1nc2ccc(S(=O)(=O)N(C)CC(=O)N3CCc4ccccc4C3)cc2s1`, the “hERG current change (%, negative = inhibition) at 10uM” value is -53.2%.
With `CN1C(=O)S/C(=C/c2cccnc2)C1=O`, the “hERG current change (%, negative = inhibition) at 10uM” value was -0.904%.
Take `O=C(Nc1ccc(C(=O)N2CCOCC2)cc1)Nc1ccc(Cl)cc1Cl`: the “hERG current change (%, negative = inhibition) at 10uM” value is reported as 9.11%.
Consider `Cc1cc2cc(CCNC(=O)CCCc3ccccc3)c(=O)[nH]c2cc1C`, for which the “hERG current change (%, negative = inhibition) at 10uM” value was found to be 15.5%.
For `COc1ccc(CNC(=O)CN(c2cc(C)cc(C)c2)S(=O)(=O)c2c(C)[nH]c(=O)[nH]c2=O)cc1` the value was 5.52%; for `CCCCC(CC)CNC(=O)C(=O)c1ccccc1NC(C)=O` (stereo not drawn), 0.488%.
For `CCCOC(=O)c1c(NC(=O)c2cnn3c2NC(c2ccccc2)CC3C(F)(F)F)sc2c1CCCC2` (stereo not drawn) the value was -6.38%; for `O=C(CCc1ccccc1)Nc1ccc(NC(=O)C2CC2)nc1`, -6.17%; for `CC(=O)c1cccc(NC(=O)C(C)OC(=O)CCC2CCCCC2)c1` (stereo not drawn), -4.11%.
To `O=C(Nc1ccccc1C(=O)N1CCOCC1)C1CC(=O)N(C2CCCC2)C1` (stereo not drawn) belongs 21.1%; to `CCC[N+]12CCC(CC1)C(=C(c1ccccc1)c1ccccc1)C2.[Br-]`, -70.1%; to `COC(=O)C1CC(O)CN1C(=O)Nc1cccc(C(F)(F)F)c1` (stereo not drawn), 26.2%.
For the compound `COc1ccc(CN(C(=O)c2ccco2)c2ccc(C)cc2)cc1OC`, the “hERG current change (%, negative = inhibition) at 10uM” value is listed as -7.32%.
`Cc1cccc(NC(=O)NCC(F)(F)F)n1`: the “hERG current change (%, negative = inhibition) at 10uM” value is listed as 6.1%.
For the compound `CCN1CCN(c2ccc(NC(=O)c3cnccn3)cc2)CC1`, the “hERG current change (%, negative = inhibition) at 10uM” value was found to be 11.9%.
For `COc1ccc(C2/C=C\CN(C(=O)Nc3ccc(C(F)(F)F)cc3)CC(=O)N2Cc2ccc(F)cc2)cc1` (stereo not drawn) the value was 6.55%; for `CC(C)N(CCn1cnc2c([nH]c3ccccc32)c1=O)C(C)C`, -68.1%; for `Cn1c(COc2ccccc2)nc2ccccc21`, 9.93%.
For `CC(=O)c1cccc(NC(=O)CN2C(=O)NC3(CCCCCCC3)C2=O)c1` the value was -17.6%; for `CC(=O)C1=C(c2ccccc2)NC(=O)NC1c1ccccc1OCC(=O)Nc1ccccc1` (stereo not drawn), 1.5%; for `CCn1c(CSc2nc(C)cc(C)n2)nnc1SCC(=O)Nc1ccccc1`, -16.5%.
For `Cc1ccc(C)c(NC(=S)N=Nc2c(O)n(C)c3ccc(S(=O)(=O)N4CCOCC4)cc23)c1` the value was 19.7%.
